# Experimental data as given in PubChem BioAssay AID686978 (National Center for Advancing Translational Sciences (NCATS), 2013).
# Among all 420,000 compounds or so, about 64,000 (15%) were called active. Inconclusive means that the source gave no clear call. Such entries were picked first, then a sample of the others. Calls follow the shape of the dose curve; as a rule, active = well fitted inhibition curve with a large enough effect; inconclusive = small, poorly fitted or top-dose-only effect; inactive = flat fitted curve, though single readings scatter. Potencies of inconclusive entries are left out as doubtful fits.
# Test: qHTS for Inhibitors of human tyrosyl-DNA phosphodiesterase 1 (TDP1): qHTS in cells in absence of CPT; also: nearly all actives have a fitted effect of over 55% in size
# Conditions: DT40 Tdp1-/- hTDP1 cells, no CPT, ATP luminescence, 48 h; activity change, negative = growth inhibition: at 46.2 µM (top of the series)
# Method in brief: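 No-CPT arm: Tdp1-/-;hTDP1 DT40 cells (400/well) plus compounds, incubated ≥48 hr at 37 °C. Readout CellTiter-Glo luminescence.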
# % is scaled to controls: 0 for no effect and ±100 for the full control effect; potency is read from the fitted curve at half-maximal effect; tags tell the direction and shape of the fitted curve.
SMILES,Potency,"activity change, negative = growth inhibition"
CC(C)CC(NC(=O)CC12CC3CC(CC(C3)C1)C2)C(=O)NC1=NCCS1 (configuration not stated),active: 25.9 µM,
Cc1cccc(C(=O)N2CCCCC2CCN2CCCCC2)c1 (configuration not stated),inactive,
O=C(Nc1ccc(F)cc1)c1oc2ccccc2c1NC(=O)C1CCCCC1,active: 29.1 µM,
O=C(NC1CCCCC1)c1ccc(Cn2c(SCc3ccccc3)nc3cccnc32)cc1,inactive,
Oc1ccc(C[C@H]2CN([C@@H](Cc3ccc(O)cc3)CN3CCC[C@@H]3CN3C(=S)NC[C@@H]3Cc3ccccc3)C(=S)N2CCc2ccccc2)cc1,active: 10.3 µM,
C=C(C)Cn1c(N2CCN(CC)CC2)nc2c1c(=O)[nH]c(=O)n2C,inactive,
CC(=O)Nc1cccc(O)c1,"inconclusive [inhibitor, single point]",
CCOc1cc(C2C(C(=O)OCC(C)C)=C(C)N=C3SCCC(=O)N32)ccc1OC(C)=O (configuration not stated),inactive,
Cc1ccc(NS(=O)(=O)c2ccc(Cl)s2)cc1S(=O)(=O)N(C)C,"inconclusive [inhibitor, partial curve, poor fit]",
O=C(Nc1ccc2ccccc2c1)c1cccc([N+](=O)[O-])c1,,inconclusive: -31.1% [inhibitor]
NC(=O)CC(NC(=O)Cc1ccc(Br)cc1)c1ccc(NC2CCCCCC2)c([N+](=O)[O-])c1 (configuration not stated),"inconclusive [inhibitor, single point]",
COc1cc(O)c(C(CC(=O)N2CCOCC2)c2cc(OC)c(OC)c(OC)c2)c(OC)c1 (configuration not stated),inactive,
Cc1ccn(Cc2n[nH]c(=S)n2Cc2ccccc2)n1,inactive,
CCCc1ccc(OCc2ccc(C(=O)N3CCSCC3)o2)cc1,inactive,
COc1ccc(N2CCN(C(=O)c3cc4c(=O)oc5ccc(C)cc5c4s3)CC2)cc1,inactive,
Cc1ccc2c(c1)COc1c3ccc(C(=O)NCC4CC4)cc3nn1-2,active: 20.6 µM,
CCn1c(CN2CCN(c3cccc(C)c3C)CC2)n[nH]c1=S,"inconclusive [inhibitor, single point]",
FC(F)(F)c1cc(-c2ccc3c(c2)OCO3)nc(NCc2ccco2)n1,"inconclusive [inhibitor, single point]",
Cc1c(C)n(Cc2ccccc2)c2ccc(C(=O)NCC(C)c3ccccc3)cc12 (configuration not stated),"inconclusive [inhibitor, single point]",
Cc1ccc(N2CCN(S(=O)(=O)c3nnc(NC(=O)c4ccccc4)s3)CC2)cc1,inactive,
O=C1CCC[C@@H]2C=C[C@H](c3ccc(Br)cc3)[C@H]3CCN1[C@@H]32,active: 18.4 µM,
CC(NC(=O)C1CCC(CNc2c(N3CCCCC3)c(=O)c2=O)CC1)c1ccccc1 (configuration not stated),inactive,
Cc1ccccc1Cn1nc(C)c(NC(=O)c2noc3c2CCc2ccccc2-3)c1C,active: 13 µM,
Nc1ccccc1-c1nnc(SCc2ccccc2F)[nH]c1=O,"inconclusive [inhibitor, single point]",

SMILES,Potency,"activity change, negative = growth inhibition"
CCOC(=O)c1cc(CC)sc1NC(=O)CC1Sc2ccc(C(F)(F)F)cc2NC1=O (configuration not stated),"inconclusive [inhibitor, single point]",
[O-][N+](=NC1C=Cc2ccccc21)C1C=Cc2ccccc21 (configuration not stated),inactive,
CCCN(CC(=O)Nc1cc(Cl)ccc1Cl)C(=O)c1ccccc1SCC(=O)N1CCCC1,inactive,
O=S(=O)(c1cccc(-c2n[nH]c(=S)n2C2CCCC2)c1)N1CCOCC1,"inconclusive [inhibitor, single point]",
CCN(CC)C(=O)CSc1nc2c(sc(=S)n2-c2ccccc2)c(=O)[nH]1,inactive,
COc1ccc(OC)c(NC(=O)c2cn(C)c(=O)c3cc(OC)c(OC)cc23)c1,"inconclusive [inhibitor, single point]",
O=C(CNCc1ccccc1)NC1C2CC3CC(C2)CC1C3 (configuration not stated),"inconclusive [inhibitor, single point]",
Nc1ncn(C(=S)Nc2ccccc2)n1,active: 1.3 µM,
OC(CNCc1ccc(Cl)cc1)C(F)(F)F (configuration not stated),"inconclusive [inhibitor, single point]",
COC(=O)c1ccc(OCc2nn[nH]n2)cc1,inactive,
CCN(CC(=O)Nc1ccc(C(C)=O)cc1)CC(=O)Nc1ccc2c(c1)OCCO2,"inconclusive [inhibitor, partial curve, poor fit]",
CCN(Cc1ccncc1)Cc1cn[nH]c1-c1ccc(OC)cc1F,"inconclusive [inhibitor, partial curve, poor fit]",
C/C(CC(=O)Nc1c(Cl)cccc1C(F)(F)F)=N\NC(=O)c1cnccn1,inactive,
Cc1ccc(OCCCC(=O)NC(C)c2ccccc2)c(C)c1 (configuration not stated),"inconclusive [inhibitor, partial curve]",
CCOC(=O)C1=C(C)NC(c2ccccc2)=C(C(=O)OCc2ccc([N+](=O)[O-])cc2)[C@@H]1C#Cc1ccccc1,inactive,
CCOC(=O)c1sc2nc(CSc3ccccc3)nc(NCCN(C)C)c2c1C,"inconclusive [inhibitor, single point]",
CC1Cc2nc(SCC(=O)NCc3ccccc3)n(Cc3ccccc3)c(=O)c2S1 (configuration not stated),"inconclusive [inhibitor, single point]",
CCOC(=O)c1c(N)nn(C(=O)c2ccccc2F)c1-c1ccc(OC)cc1,"inconclusive [inhibitor, single point]",
Cc1ccc(C(=O)NNC(=O)CCOc2cccc(C)c2)cc1,inactive,
CC1=C(C(=O)N(C)C)CC(CC(=O)NCCc2ccccn2)C(=O)N1Cc1ccc(F)cc1 (configuration not stated),,inconclusive: -3.27% [inhibitor]
CCOC(=O)C1CCN(C(=O)CN(c2ccc3c(c2)OCCO3)S(C)(=O)=O)CC1,inactive,
COc1ccc2c(c1)OC[C@H]1[C@H]2N2C(=O)c3ccc(C)cc3NC(=O)[C@@]2(C)[C@H]1c1ccccc1,"inconclusive [inhibitor, single point]",
COc1ccc2[nH]c(=O)c(CN(C3CCCCC3)C(c3nnnn3Cc3ccco3)C(C)C)cc2c1 (configuration not stated),"inconclusive [inhibitor, single point]",
